# Data from the supplement of paper PMC12217912.
# Some of the results follow. The full chains were built here from the parent and the listed change. Inactive controls read about 0.05.
# B1: TEV protease; numbered along this chain (parent)
# chain: MGESLFKGPRDYNPISSSICHLTNESDGHTTSLYGIGFGPFIITNKHLFRRNNGTLVVQSLHGVFKVKDTTTLQQHLVDGRDMIIIRMPKDFPPFPQKLKFREPQREERICLVTTNFQTKSMSSMVSDTSCTFPSGDGIFWKHWIQTKDGQCGSPLVSTRDGFIVGIHSASNFTNTNNYFTSVPKNFMELLTNQEAQQWVSGWRLNADSVLWGGHKVFMVKPEEPFQPVKEATQL
# Variants of: B1
# Assay: raw area under fraction-flipped curve 0-4 h after induction (AUC4h, not background-subtracted), DNA-recorder readout of cleavage of the substrate (dimensionless); higher = more cleavage of the substrate by the protease variant
# Conditions: temperature: 34 °C; time window: 0-4 h after rhamnose induction
# Experimental: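 In vivo DNA recorder in E. coli TOP10(DE3) ΔrhaA at 34 °C. Each TEVp single-site mutant (parent TEVp 0) is paired with a single-site variant of the 7-mer TEVs (canonical ENLYFQ|S). The substrate sits between flexible linkers in a Bxb1-sfGFP-TEVs-SsrA fusion, so cleavage stabilises Bxb1 and speeds flipping of a recombination array, read by NGS. The value is the raw area under the fraction-flipped curve over 0-4 h after rhamnose induction (AUC4h), with ≥20 reads per time point. It is not background-subtracted; inactive controls average about 0.047.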
# 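Also: Bxb1 expression induced with 0.2% (w/v) L-rhamnose at OD600 near 0.5, cultures sampled hourly, flipped fraction per protease–substrate barcode pair counted by paired-end Illumina sequencing.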
variant,measurement,value
MGESLFKGPRDYNPISSSICHLTNESDGHTTSLYGIGFGPFIITNKHLFRRNNGTLVVQSLHGVFKVKDTTTLQQHLVDGRDMIIIRMPKDFPPFPQKLKFREPTREERICLVTTNFQTKSMSSMVSDTSCTFPSGDGIFWKHWIQTKDGQCGSPLVSTRDGFIVGIHSASNFTNTNNYFTSVPKNFMELLTNQEAQQWVSGWRLNADSVLWGGHKVFMVKPEEPFQPVKEATQL [Q105T],area with substrate ENAYFQS,0.0606
same,area with substrate ENCYFQS,0.0692
same,area with substrate ENDYFQS,0.0717
same,area with substrate ENFYFQS,0.028
same,area with substrate ENGYFQS,0.0722
same,area with substrate ENHYFQS,0.0607
same,area with substrate ENRYFQS,0.0608
same,area with substrate ENSYFQS,0.0578
same,area with substrate ENVYFQS,0.0495
MGESLFKGPRDYNPISSSICHLTNESDGHTTSLYGIGFGPFIITNKHLFRRNNGTLVVQSLHGVFKVKDTTTLQQHLVDGRDMIIIRMPKDFPPFPQKLKFREPQIEERICLVTTNFQTKSMSSMVSDTSCTFPSGDGIFWKHWIQTKDGQCGSPLVSTRDGFIVGIHSASNFTNTNNYFTSVPKNFMELLTNQEAQQWVSGWRLNADSVLWGGHKVFMVKPEEPFQPVKEATQL [R106I],area with substrate ENAYFQS,0.0584
same,area with substrate ENDYFQS,0.0667
same,area with substrate ENEYFQS,0.06
same,area with substrate ENFYFQS,0.0606
same,area with substrate ENGYFQS,0.0773
same,area with substrate ENKYFQS,0.0712
same,area with substrate ENNYFQS,0.0657
same,area with substrate ENQYFQS,0.0639
same,area with substrate ENRYFQS,0.064
same,area with substrate ENSYFQS,0.0797
same,area with substrate ENTYFQS,0.0619
same,area with substrate ENVYFQS,0.0847
MGESLFKGPRDYNPISSSICHLTNESDGHTTSLYGIGFGPFIITNKHLFRRNNGTLVVQSLHGVFKVKDTTTLQQHLVDGRDMIIIRMPKDFPPFPQKLKFREPQRENRICLVTTNFQTKSMSSMVSDTSCTFPSGDGIFWKHWIQTKDGQCGSPLVSTRDGFIVGIHSASNFTNTNNYFTSVPKNFMELLTNQEAQQWVSGWRLNADSVLWGGHKVFMVKPEEPFQPVKEATQL [E108N],area with substrate ENAYFQS,0.0496
same,area with substrate ENCYFQS,0.0645
same,area with substrate ENDYFQS,0.061
same,area with substrate ENGYFQS,0.0586
same,area with substrate ENHYFQS,0.0556
same,area with substrate ENIYFQS,0.0688
same,area with substrate ENNYFQS,0.0585
same,area with substrate ENPYFQS,0.0474
same,area with substrate ENQYFQS,0.0559
same,area with substrate ENRYFQS,0.053
same,area with substrate ENSYFQS,0.0471
same,area with substrate ENTYFQS,0.0456
same,area with substrate ENVYFQS,0.0501
same,area with substrate ENYYFQS,0.0506
MGESLFKGPRDYNPISSSICHLTNESDGHTTSLYGIGFGPFIITNKHLFRRNNGTLVVQSLHGVFKVKDTTTLQQHLVDGRDMIIIRMPKDFPPFPQKLKFREPQREYRICLVTTNFQTKSMSSMVSDTSCTFPSGDGIFWKHWIQTKDGQCGSPLVSTRDGFIVGIHSASNFTNTNNYFTSVPKNFMELLTNQEAQQWVSGWRLNADSVLWGGHKVFMVKPEEPFQPVKEATQL [E108Y],area with substrate ENAYFQS,0.0564
same,area with substrate ENCYFQS,0.0615
same,area with substrate ENDYFQS,0.052
same,area with substrate ENEYFQS,0.0561
same,area with substrate ENFYFQS,0.0493
same,area with substrate ENGYFQS,0.0548
same,area with substrate ENHYFQS,0.0349
same,area with substrate ENNYFQS,0.0556
same,area with substrate ENPYFQS,0.0735
same,area with substrate ENQYFQS,0.0615
same,area with substrate ENSYFQS,0.0641
same,area with substrate ENTYFQS,0.0614
same,area with substrate ENVYFQS,0.0513
same,area with substrate ENWYFQS,0.0567
MGESLFKGPRDYNPISSSICHLTNESDGHTTSLYGIGFGPFIITNKHLFRRNNGTLVVQSLHGVFKVKDTTTLQQHLVDGRDMIIIRMPKDFPPFPQKLKFREPQREECICLVTTNFQTKSMSSMVSDTSCTFPSGDGIFWKHWIQTKDGQCGSPLVSTRDGFIVGIHSASNFTNTNNYFTSVPKNFMELLTNQEAQQWVSGWRLNADSVLWGGHKVFMVKPEEPFQPVKEATQL [R109C],area with substrate ENAYFQS,0.075
same,area with substrate ENCYFQS,0.0652
same,area with substrate ENDYFQS,0.0518
same,area with substrate ENEYFQS,0.0517
same,area with substrate ENIYFQS,0.0922
same,area with substrate ENNYFQS,0.0537
same,area with substrate ENQYFQS,0.0607
same,area with substrate ENRYFQS,0.0575
same,area with substrate ENSYFQS,0.0583
same,area with substrate ENVYFQS,0.0723
same,area with substrate ENWYFQS,0.0671
MGESLFKGPRDYNPISSSICHLTNESDGHTTSLYGIGFGPFIITNKHLFRRNNGTLVVQSLHGVFKVKDTTTLQQHLVDGRDMIIIRMPKDFPPFPQKLKFREPQREEPICLVTTNFQTKSMSSMVSDTSCTFPSGDGIFWKHWIQTKDGQCGSPLVSTRDGFIVGIHSASNFTNTNNYFTSVPKNFMELLTNQEAQQWVSGWRLNADSVLWGGHKVFMVKPEEPFQPVKEATQL [R109P],area with substrate ENAYFQS,0.0676
same,area with substrate ENCYFQS,0.0577
same,area with substrate ENDYFQS,0.06
same,area with substrate ENEYFQS,0.0469
same,area with substrate ENFYFQS,0.0595
same,area with substrate ENGYFQS,0.0594
same,area with substrate ENHYFQS,0.0559
same,area with substrate ENIYFQS,0.104
same,area with substrate ENKYFQS,0.0675
same,area with substrate ENNYFQS,0.0803
same,area with substrate ENPYFQS,0.0681
same,area with substrate ENQYFQS,0.0521
same,area with substrate ENRYFQS,0.066
same,area with substrate ENSYFQS,0.0622
same,area with substrate ENTYFQS,0.0175
same,area with substrate ENVYFQS,0.0783
same,area with substrate ENYYFQS,0.0626
MGESLFKGPRDYNPISSSICHLTNESDGHTTSLYGIGFGPFIITNKHLFRRNNGTLVVQSLHGVFKVKDTTTLQQHLVDGRDMIIIRMPKDFPPFPQKLKFREPQREERHCLVTTNFQTKSMSSMVSDTSCTFPSGDGIFWKHWIQTKDGQCGSPLVSTRDGFIVGIHSASNFTNTNNYFTSVPKNFMELLTNQEAQQWVSGWRLNADSVLWGGHKVFMVKPEEPFQPVKEATQL [I110H],area with substrate ENAYFQS,0.0515
same,area with substrate ENCYFQS,0.0488
same,area with substrate ENDYFQS,0.0516
same,area with substrate ENEYFQS,0.0461
same,area with substrate ENFYFQS,0.0458
same,area with substrate ENGYFQS,0.0478
same,area with substrate ENHYFQS,0.0529
same,area with substrate ENKYFQS,0.0388
same,area with substrate ENNYFQS,0.053
same,area with substrate ENPYFQS,0.0559
same,area with substrate ENQYFQS,0.0583
same,area with substrate ENSYFQS,0.0547
same,area with substrate ENTYFQS,0.0517
same,area with substrate ENVYFQS,0.0546
same,area with substrate ENYYFQS,0.0687
MGESLFKGPRDYNPISSSICHLTNESDGHTTSLYGIGFGPFIITNKHLFRRNNGTLVVQSLHGVFKVKDTTTLQQHLVDGRDMIIIRMPKDFPPFPQKLKFREPQREERICLDTTNFQTKSMSSMVSDTSCTFPSGDGIFWKHWIQTKDGQCGSPLVSTRDGFIVGIHSASNFTNTNNYFTSVPKNFMELLTNQEAQQWVSGWRLNADSVLWGGHKVFMVKPEEPFQPVKEATQL [V113D],area with substrate ENAYFQS,0.0563
same,area with substrate ENCYFQS,0.0405
same,area with substrate ENDYFQS,0.0462
same,area with substrate ENEYFQS,0.0516
same,area with substrate ENFYFQS,0.0475
same,area with substrate ENGYFQS,0.0424
same,area with substrate ENHYFQS,0.0455
same,area with substrate ENIYFQS,0.0562
same,area with substrate ENKYFQS,0.0458
same,area with substrate ENMYFQS,0.0446
same,area with substrate ENNYFQS,0.0485
same,area with substrate ENQYFQS,0.0557
same,area with substrate ENRYFQS,0.061
same,area with substrate ENSYFQS,0.0557
same,area with substrate ENTYFQS,0.0641
same,area with substrate ENVYFQS,0.0396
same,area with substrate ENWYFQS,0.006
MGESLFKGPRDYNPISSSICHLTNESDGHTTSLYGIGFGPFIITNKHLFRRNNGTLVVQSLHGVFKVKDTTTLQQHLVDGRDMIIIRMPKDFPPFPQKLKFREPQREERICLHTTNFQTKSMSSMVSDTSCTFPSGDGIFWKHWIQTKDGQCGSPLVSTRDGFIVGIHSASNFTNTNNYFTSVPKNFMELLTNQEAQQWVSGWRLNADSVLWGGHKVFMVKPEEPFQPVKEATQL [V113H],area with substrate ENAYFQS,0.0673
same,area with substrate ENDYFQS,0.0689
same,area with substrate ENEYFQS,0.0656
same,area with substrate ENFYFQS,0.0386
same,area with substrate ENHYFQS,0.064
same,area with substrate ENKYFQS,0.0407
same,area with substrate ENMYFQS,0.0807
same,area with substrate ENPYFQS,0.0567
same,area with substrate ENQYFQS,0.0639
same,area with substrate ENRYFQS,0.0285
same,area with substrate ENSYFQS,0.0458
same,area with substrate ENWYFQS,0.066
same,area with substrate ENYYFQS,0.0516
